From the supplement of paper PMC11417369
± gives the standard deviation of the averaged measurements. This is one part of the list.

The sequences below were run on PfAP2-LT AP2 domain (GST-tagged) (assay: gcPBM binding intensity (ln(normalized median fluorescence intensity)); higher = stronger DNA binding).
How it was run: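 For binding intensity, the highest Masliner-normalised natural-log median intensity across replicate spots of either probe orientation was taken. Protein bound to the array was stained with Alexa488 anti-GST antibody and scanned at 488 nm. The protein, GST-tagged P. falciparum DNA-binding domains from E. coli at about 25 μg on average, had been applied for 1 h to an Agilent 4 × 180k array of primer-extended double-stranded 36-bp intergenic genomic probes and negative controls.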

Sequence | gcPBM binding intensity (ln)
TTAATTATATTATGCACACACAATTGGAAAAAAAAT [CACACA_site1958] | 9.18 ± 0.47
TATTTAGAAATAAATACACACATACATTTTTGTATA [CACACA_site4557] | 8.74 ± 0.42
AAAAAAAAGAAAAAAACACACAATGGAAAAAATGTA [CACACA_site3675] | 8.93 ± 0.59
AAAAATATGCTTCCATGTACTTAAAAAAAAAATTTA [XGTACX_site3617] | 8.34 ± 0.47
ACGTTAGGCTTATTTGCACACTTGTATTAAAATTTT [CACACA_site4854] | 8.97 ± 0.49
TCAACTTGATTTATATGTACACATATAAGTAATTAT [XGTACX_site1798] | 8.63 ± 0.41
AAAAAAAATTTTCTTCTGTTGTATTTTTTATACGTT [GTGCAC_negctrl_site477] | 8.74 ± 0.51
TATACAAACTATGATGCACACATATATATATGTATA [CACACA_site8327] | 9.12 ± 0.3
TATATATAATATTTTTCACACACCATTTCCTTAAAC [CACACA_site1341] | 9.04 ± 0.29
TGTATCTATAATAAAACACACATTTTTAATGTGCTC [CACACA_site6788] | 8.78 ± 0.39
TTTTTTTTTTTTTTTTGTACATAATAAATGTTCTTA [XGTACX_site6754] | 8.46 ± 0.38
TACAAAAATATATAAACACACAAATATAATATATAT [CACACA_site2942] | 9.02 ± 0.46
ATAAATCAAATGCACACACACAAAAAAAAAAAAAAA [CACACA_site6221] | 9.65 ± 0.54
CGCTCTCTTTAATATTGTACATATATATTATATATA [XGTACX_site7017] | 8.84 ± 0.43
TAATAAATGACAAATTAACACACATATATTATATAT [CACACA_site9294] | 8.98 ± 0.36
TTATACGAAGTACGTACACACACTTATATGTTACTA [CACACA_site4019] | 9.29 ± 0.45
AATAAATAGAAAGAGGTGCTACATTATATTATTTAT | 8.68 ± 0.45
TATTTTGTATTCATTTGTCACATATAATAGATAGGA [TGCATGCA_negctrl_site9] | 8.49 ± 0.38
AATATATGTATATCCACACACATATATATATATATA [CACACA_site1633] | 9.98 ± 0.071
ATAGATATAACATATGCATGTAAAATATAACCACTC [TGCATGCA_site60] | 9.17 ± 0.42
TGTGCGGAAATAAGTGCACACATAGATATATGTATT [CACACA_site9227] | 9.38 ± 0.44
ACATATTTATATGTCTGTACAAATATGCAATTTTTT [XGTACX_site5516] | 8.77 ± 0.47

Sequence | gcPBM binding intensity (ln)
AATTTATAAATAATTAATTTGATAAATTATAAAGGG [GTGCAC_negctrl_site544] | 8.45 ± 0.45
TTAGATAGATTTGTACGTACTTATTATAACGTATCA [XGTACX_site5067] | 8.69 ± 0.39
ATATTTATAACTTGGTGTACTTTGAAAAAAAAAAAA [XGTACX_site5194] | 8.27 ± 0.37
AAAAAAAAAAAAAACACACATACATACATACATATA [CACACA_site4121] | 9.13 ± 0.38
ATAATTTTTTAGATCACACATATAAATAAATAAATA [CACACA_site5175] | 8.44 ± 0.59
TTATATTAGCCGATGGTGCATATATTTATAGGAAAA [GTGCAC_site9518] | 8.41 ± 0.55
AAAAAAATTAAATGGGGTACAATAAGGGTCAAATAT [XGTACX_site8669] | 9.05 ± 0.47
GGATAATCATACGAAGCATGCTGAATTTCCAAATAA [TGCATGCA_site1013] | 8.89 ± 0.48
TTTTATTATATATATTGTACATATATTTTTATTTTT [XGTACX_site1564] | 8.77 ± 0.42
AAAAAAAAAAATGGCTGTACATAATATTTAAATAGG [XGTACX_site4286] | 8.72 ± 0.46
TACTGTATTATAATTATGATTGACGAAATTAAAAAT [GTGCAC_negctrl_site358] | 8.53 ± 0.42
ATTAGAAAAAAGATAGCACACACGGCCCAATATATA [CACACA_site2417] | 9.24 ± 0.42
TGAAATTTATAATAGTGTACAAAGAAAAAAAAAAAA [XGTACX_site4965] | 8.65 ± 0.6
AAGGTTATATAAAAAAGTACGCATAAGATGTTGTTC [XGTACX_site807] | 8.88 ± 0.43
CAATATAAAATAAAATGTACTTGTAGTAAAGGGATA [XGTACX_site1452] | 9.03 ± 0.51
ATAAAGGTTTTCCAAGCATGCCACATAGTGACATAC [TGCATGCA_site193] | 8.64 ± 0.39
AGATAGATACATACACGTACATATATATATACACAT [XGTACX_site4755] | 9.18 ± 0.35
GATGAGGACAAACACACACACATAAGTTGATACATA [CACACA_site3424] | 9.68 ± 0.39
TTTATGGATGTGTATGCATGCCTAAATAAATATATG [TGCATGCA_site916] | 8.79 ± 0.41
TAAATAATGTAAAAAACATCATCAAAATGTTAATTA [CACACA_negctrl_site1768] | 8.45 ± 0.51
TCTCAAAAAAAAAAAAAAAAAAAAAAATTAAAAAAT [CACACA_negctrl_site1120] | 8.22 ± 0.51
ACGACATATGGATGATGTACTATCTTTATTATACAT [XGTACX_site6857] | 8.95 ± 0.43

Sequence | gcPBM binding intensity (ln)
TAGAATAAACCAAGAAGTACTGTTTAATGAAAAGTA [XGTACX_site5712] | 8.79 ± 0.5
ATACCTAAAAAATATACACACATATTTATAAATATA [CACACA_site7260] | 8.93 ± 0.4
TATAAATATATATATACACACACATACACAAAAAAA [CACACA_site9191] | 9.71 ± 0.27
ATATATTATATGTACACACACATATAAGGGATTATA [CACACA_site5] | 9.28 ± 0.4
TATTACTTGATATATACACACATATAACATAAATGC [CACACA_site7783] | 8.94 ± 0.29
AAAAATATGAAGACACAATATAGAAATAAAAATATA [XGTACX_negctrl_site244] | 8.79 ± 0.5
TATTATAATATGTAGCGTACATTTTTTCTTTCTTTT [XGTACX_site7831] | 8.73 ± 0.49
TAAACAGACATATAAACACACATATAAACCGACATA [CACACA_site2478] | 9.4 ± 0.48
TATATTTATATTCTTACATTTTTTATGTTTTTTTTT [CACACA_negctrl_site1017] | 8.66 ± 0.58
AAAATAACATAAAAGAGTACTAAACCAAGATCAAAT [XGTACX_site7973] | 9.11 ± 0.48
GTCATATTATTCTTTTCACACACGCGTTAATAATAA [CACACA_site9302] | 9.46 ± 0.45
CACATTATGTATCATACACACAAATAAATATATAAT [CACACA_site4505] | 9.33 ± 0.41
ATATTATTAATATATTGTACTTTTTTTTTTTTATTT [XGTACX_site496] | 8.68 ± 0.51
ATATGTATTTAATTCACACAAAAATATGTTCATGAA [CACACA_site5223] | 8.59 ± 0.38
ATATTTTATTTTCCATGTACACAAAAAAAAAAAAAA [XGTACX_site8327] | 8.26 ± 0.34
TTTTTTTTTTTCTTTGCACACAGATAACTTGAAATT [CACACA_site2184] | 8.96 ± 0.45
AATTTAATTATGGTAACACACAATAAAAAAAAATCT [CACACA_site568] | 8.8 ± 0.38
AGGTTAAAAATAAATACACACATTTTATGGGTGTAT [CACACA_site4702] | 8.85 ± 0.47
AAGAAAATAAAGGATATGAAAAATAAAAAAAAGGAG [TGCATGCA_negctrl_site265] | 8.74 ± 0.48
TGAAAATAATTATAGGTGCATAAACATACGGATCTT | 8.89 ± 0.45
TTTTTTTTGTATTTTTCACACACTCTCTATCTCTCT [CACACA_site8655] | 9.2 ± 0.71
TATAAAAATAATATTACACACATGTAAAATGCCCGT [CACACA_site7522] | 9.16 ± 0.36

Sequence | gcPBM binding intensity (ln)
ATATATTAATAATAAATTAAAAGGAGTAACATTTTC [CACACA_negctrl_site320] | 8.54 ± 0.46
CGCATACACGGACACACACACACATATATATATATA [CACACA_site4520] | 10.23 ± 0.071
TAAAATAATTCGTAACGTACATATGTAATATAATAT [XGTACX_site6126] | 9.09 ± 0.33
TAATATATAAGAAACAAAAAAAAATAAAAATATATA [TGCATGCA_negctrl_site153] | 8.54 ± 0.54
AAAAAAAAAAAACACACACACACACTAATATATAAA [CACACA_site8302] | 10.3 ± 0.35
GGTATAAAGAAATTTTGTACATATTTCTCCCTTTAA [XGTACX_site1874] | 8.46 ± 0.4
ATTTCTCAATCGTAATGTACAAAAAAAAGGAAAAAA [XGTACX_site1193] | 8.52 ± 0.61
TTATATAGATGGAATAGTACAGTATATATATATATA [XGTACX_site8755] | 9.51 ± 0.48
AGCTCTATATTTTACACATGCGATTTGGATATATAT [TGCATGCA_site105] | 9.04 ± 0.35
TAAATATATATCATCACACACACATACATAAATATA [CACACA_site183] | 9.54 ± 0.23
CCTTTATATTATAAAAGTACATAATATTTTATAAGT [XGTACX_site1629] | 8.29 ± 0.39
ATATTACAACGTAACGAATATTTCATAAATTCTTAA [CACACA_negctrl_site770] | 8.56 ± 0.42
CTTGACCCCCTTTGTTGTACTGACATTTGTGAGCTT [XGTACX_site591] | 9.06 ± 0.32
ATTTTTTCAAAATGGAAAACTTATCAGTGAAAAAAA [CACACA_negctrl_site1087] | 8.44 ± 0.55
TATTTTATATGATAGGTGCATTTTTTTTTTTTTTTT [GTGCAC_site9757] | 8.58 ± 0.52
ATTTTTTTATACAATTTTATATATTAAATATTATAA [GTGCAC_negctrl_site86] | 8.24 ± 0.39
TGTATTTTTAACATATGTACGAATAGCACGTGTTAT [XGTACX_site3640] | 8.85 ± 0.41
TAAAAATGGGAGGGGTGTACTACACAATAAAATTAT [XGTACX_site5641] | 8.94 ± 0.35
TTTGTGTAAAGAATCAGTACATATAATATATATATA [XGTACX_site1972] | 8.74 ± 0.39
TTAATAATGTTTTATTGTACTTTTTTGTGGGTTTAT [XGTACX_site5670] | 8.89 ± 0.48
ATATGTATTGGAGTGTGTACATATATATATATTTAT [XGTACX_site5633] | 9.07 ± 0.35
GTGCTACATCATATGTGTACATATACCAAACTGTAT [XGTACX_site8233] | 9.04 ± 0.33
